{"source": "PubChem BioAssay AID760", "about": "(NMMLSC, 2007)", "note": "About 360 (0.19%) of roughly 190,000 compounds were called active. The inconclusive results got no clear call from the source; some entries with a clear call stand among them for comparison.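 The calls were made as follows: active = GTP binding activity at least 20 points away from 100%, either lowered or raised; inconclusive = signal likely due to the compound's own green fluorescence; inactive = the rest.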", "data": [{"molecular_target": "Ras-related protein Rab-2A (Canis lupus familiaris) (UniProt P61105)", "assay": "Rab2 wt fluorescent GTP binding changes, either direction – biochemical, dog, bead-based flow cytometry, multiplex, primary screen (AID 760);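 also: 0% = beads with excess unlabeled GTP and 100% = no-compound control corrected for plate trend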", "settings": "GST-Rab2 wt beads, Bodipy-GTP binding, at 10 µM", "values": [{"smiles": "COc1cc(C(=O)O)c2ccccc2n1", "GTP binding activity": "inactive: 99%"}, {"smiles": "Cn1c(SCC(=O)N2CCN(c3ccccc3)CC2)nnc1-c1cc2ccccc2o1", "GTP binding activity": "inconclusive: 93%"}, {"smiles": "CCOC(=O)C1=NN(C(=O)c2ccc(OC)cc2)C(O)(c2ccc(Cl)cc2)C1", "note": "(stereo not drawn)", "GTP binding activity": "inactive: 96%"}, {"smiles": "CCN1/C(=C\\C(=S)Nc2ccccc2)Sc2ccccc21", "GTP binding activity": "inconclusive: 93%"}, {"smiles": "COc1cc(C)nc(SCC(N)=O)n1", "GTP binding activity": "inconclusive: 89%"}, {"smiles": "Cn1c(N/N=C/c2cccs2)nc2c1c(=O)n(Cc1ccccc1)c(=O)n2C", "GTP binding activity": "inconclusive: 75%"}, {"smiles": "Cc1ccccc1-n1c(=O)cc(N2CCc3ccccc3C2)[nH]c1=O", "GTP binding activity": "inconclusive: 102%"}, {"smiles": "O=C(O)Cn1nnc(-c2cccs2)n1", "GTP binding activity": "inconclusive: 110%"}, {"smiles": "COc1ccc(S(=O)(=O)Nc2ccccc2C(N)=O)cc1OC", "GTP binding activity": "inactive: 102%"}, {"smiles": "Cc1ccc(SCC(=O)NC(=O)NCCC(C)C)c(C)c1", "GTP binding activity": "inactive: 102%"}, {"smiles": "CC(C)CNC(=O)c1ccccc1NC(=O)CSCc1ccccc1", "GTP binding activity": "inactive: 99%"}, {"smiles": "Cc1cc(C=O)c(C)n1-c1cc(C(=O)O)cc(C(=O)O)c1", "GTP binding activity": "inconclusive: 92%"}, {"smiles": "COC12NC(=O)N(C)C1(OC)C(=O)N(C)C(=O)N2C", "note": "(stereo not drawn)", "GTP binding activity": "inactive: 99%"}, {"smiles": "CCOC(=O)C1=C(O)C(=O)N(CCCn2ccnc2)C1c1ccc(OC)cc1", "note": "(stereo not drawn)", "GTP binding activity": "inactive: 97%"}, {"smiles": "Cc1sc2ncnc(OCC(=O)NC(C)C)c2c1C", "GTP binding activity": "inconclusive: 107%"}, {"smiles": "Cc1cc(Cl)ccc1NC(=S)Nc1ccccn1", "GTP binding activity": "inconclusive: 99%"}, {"smiles": "CCOC(=O)c1cc2c(ccn2C)n1CC(=O)N1CCCC(C)C1", "note": "(stereo not drawn)", "GTP binding activity": "inconclusive: 93%"}, {"smiles": "CS(=O)(=O)N1CCN(C(=O)C2c3ccccc3Oc3ccccc32)CC1", "GTP binding activity": "inactive: 112%"}, {"smiles": "Cc1cc2nc(/C(C#N)=C/c3ccncc3)[nH]c2cc1C", "GTP binding activity": "inactive: 94%"}, {"smiles": "Cc1cc(NC(=O)CSc2nnc(-c3cccnc3)n2Cc2ccccc2)no1", "GTP binding activity": "inconclusive: 94%"}, {"smiles": "NS(=O)(=O)c1ccc(NC(=O)N[C@@H](Cc2ccccc2)C(=O)O)cc1", "GTP binding activity": "inconclusive: 101%"}, {"smiles": "COc1ccc(/C=N/Nc2nnc(Cc3ccc(OC)c(OC)c3)c(=O)[nH]2)cc1OC", "GTP binding activity": "inconclusive: 81%"}, {"smiles": "O=C(N/C=C/c1ccccc1)Nc1ccc(Cl)cc1", "GTP binding activity": "inconclusive: 93%"}, {"smiles": "COc1cc(/C=N/N=C2/SCC(=O)N2c2ccc(O)cc2)ccc1O", "GTP binding activity": "inactive: 99%"}, {"smiles": "CCOC(=O)N1CCN(C(=O)C2CCCN(S(=O)(=O)c3ccc(C)cc3)C2)CC1", "note": "(stereo not drawn)", "GTP binding activity": "inconclusive: 102%"}, {"smiles": "O=C(O)c1cn(Cc2ccccc2Cl)c2ccc(S(=O)(=O)N3CCOCC3)cc2c1=O", "GTP binding activity": "inconclusive: 94%"}, {"smiles": "O=C(NC(NCc1ccccn1)(C(F)(F)F)C(F)(F)F)c1ccco1", "GTP binding activity": "inconclusive: 103%"}, {"smiles": "CCOc1ccc(-n2c(SCC(=O)Nc3ccc(OC)cc3OC)nc3c(c2=O)SCC3)cc1", "GTP binding activity": "inconclusive: 104%"}, {"smiles": "CCSc1nc2nc(C)cc(C)n2n1", "GTP binding activity": "inactive: 99%"}, {"smiles": "CCCN1C(=O)/C(=C\\C=C2/Sc3ccccc3N2CC)SC1=S", "GTP binding activity": "active: 74%"}, {"smiles": "Cc1cc(-c2n[nH]c(=S)n2/N=C/c2cc([N+](=O)[O-])ccc2Cl)n[nH]1", "GTP binding activity": "active: 74%"}, {"smiles": "Cn1c(CCNC(=O)c2ccc(Cl)c(Cl)c2)nnc1SCc1ccc(Cl)c(Cl)c1", "GTP binding activity": "inconclusive: 91%"}, {"smiles": "CCN(CC)CCCNc1ncnc2ccccc12", "GTP binding activity": "inconclusive: 95%"}, {"smiles": "CCCC(=O)NCn1nnc(-c2ccc(Cl)cc2)n1", "GTP binding activity": "inconclusive: 254%"}, {"smiles": "Cc1nnc(NC(=O)c2ccccc2F)s1", "GTP binding activity": "inconclusive: 91%"}, {"smiles": "O=C(CCn1cnc2ccccc2c1=O)Nc1cccc(Cl)c1Cl", "GTP binding activity": "inconclusive: 94%"}, {"smiles": "C=CCc1c(OC)ccc2ccc(=O)oc12", "GTP binding activity": "inactive: 100%"}, {"smiles": "CCNC(=S)N(Cc1cccs1)Cc1cc2cc(OCC)ccc2[nH]c1=O", "GTP binding activity": "inconclusive: 204%"}, {"smiles": "O=C(NCc1nnc(SCC(=O)N2CCCc3ccccc32)o1)c1c(F)cccc1Cl", "GTP binding activity": "inactive: 101%"}, {"smiles": "O=c1c2cccc3c2c(nn1-c1ccccc1)-c1ccccc1-3", "GTP binding activity": "inconclusive: 84%"}, {"smiles": "O=C(O)c1ccc(Oc2ccc(C(F)(F)F)cn2)cc1", "GTP binding activity": "inconclusive: 94%"}, {"smiles": "CC1C2CC(C(S(=O)(=O)N3CCOCC3)C2=O)C1(C)C", "note": "(stereo not drawn)", "GTP binding activity": "inconclusive: 99%"}, {"smiles": "O=c1[nH]c(=O)c2cc([N+](=O)[O-])cc([N+](=O)[O-])c2[nH]1", "GTP binding activity": "inconclusive: 86%"}, {"smiles": "O=C(COC(=O)Cn1cnc2ccccc2c1=O)Nc1cc(Cl)ccc1[N+](=O)[O-]", "GTP binding activity": "inactive: 83%"}, {"smiles": "CC(=O)Nc1ccc(S(=O)(=O)NC2=C(N3CCN(c4ccc(F)cc4)CC3)C(=O)c3ccccc3C2=O)cc1", "GTP binding activity": "inconclusive: 91%"}, {"smiles": "CCN(Cc1cnn(C)c1)C(=O)c1ccc(OC2CCN(S(=O)(=O)N(C)C)CC2)cc1", "GTP binding activity": "inconclusive: 96%"}, {"smiles": "CC(=O)Nc1ccc(NC(=O)C2CCCN2C(=O)Nc2ccccc2[N+](=O)[O-])cc1", "note": "(stereo not drawn)", "GTP binding activity": "inconclusive: 97%"}, {"smiles": "Cn1c(CN2CCCC(C(=O)c3ccc4c(c3)OCO4)C2)nc2ccccc21", "note": "(stereo not drawn)", "GTP binding activity": "inactive: 94%"}, {"smiles": "C=CCc1c(C)nc(N)[nH]c1=O", "GTP binding activity": "inactive: 100%"}, {"smiles": "COc1cccc2c(SCC(=O)N/N=C/c3ccc(O)c(O)c3)cc(C)nc12", "GTP binding activity": "active: 75%"}, {"smiles": "O=C(c1cccc(S(=O)(=O)N2CCOCC2)c1)N1CCCCCC1", "GTP binding activity": "inconclusive: 101%"}, {"smiles": "CN(C)CCCn1c(SCC(=O)N2c3ccccc3Sc3ccccc32)nc2ccccc2c1=O", "GTP binding activity": "inactive: 102%"}, {"smiles": "O=c1[nH]c(=O)c2nnc(N/N=C\\c3ccc(O)cc3)nc2[nH]1", "GTP binding activity": "active: 59%"}, {"smiles": "CCCCN1CNC(=S)N(c2cc(C)ccc2C)C1", "GTP binding activity": "inconclusive: 104%"}, {"smiles": "CSCCNCc1cn(-c2ccc(F)cc2F)nc1-c1ccccc1C", "GTP binding activity": "inactive: 100%"}, {"smiles": "C/C(CC(=O)Nc1cccc(C(F)(F)F)c1)=N\\NC(=O)Cc1ccccc1", "GTP binding activity": "inconclusive: 95%"}, {"smiles": "COc1cc2c(cc1NCc1ccccn1)oc1ccccc12", "GTP binding activity": "inactive: 100%"}, {"smiles": "C/C(=N\\NS(=O)(=O)c1cccc([N+](=O)[O-])c1)c1cccnc1", "GTP binding activity": "inactive: 99%"}, {"smiles": "COC(=O)CN1C(=O)C2(C(C#N)=C(N)Oc3n[nH]c(-c4cccs4)c32)c2ccccc21", "note": "(stereo not drawn)", "GTP binding activity": "inconclusive: 92%"}, {"smiles": "CC(C)(C)NC(=O)NC(=O)COC(=O)c1cccc(S(=O)(=O)N2CCCCC2)c1", "GTP binding activity": "inactive: 100%"}, {"smiles": "CC(C)c1nc2sc3c(=O)[nH]c(=S)[nH]c3c2c2c1CCC2", "GTP binding activity": "inactive: 93%"}, {"smiles": "CCOc1ccccc1CN(CCc1ccc2c(c1)OCO2)Cc1ccccn1", "GTP binding activity": "inconclusive: 109%"}, {"smiles": "COc1ccc(NC(=S)N(CCN(C)C)C(C)c2ccco2)cc1Cl", "note": "(stereo not drawn)", "GTP binding activity": "inconclusive: 133%"}, {"smiles": "COc1cc(/C=N/NC(=O)c2ccncc2)ccc1OC(=O)c1ccccc1Cl", "GTP binding activity": "inconclusive: 93%"}, {"smiles": "COc1ccc(CNCC(O)(c2ccc(F)cc2)c2ccc(F)cc2)cc1", "GTP binding activity": "inactive: 102%"}, {"smiles": "CC(=O)Nc1ccc(Nc2nc(Cl)nc(Nc3ccc(NC(C)=O)cc3)n2)cc1", "GTP binding activity": "inactive: 96%"}, {"smiles": "O=C(NCc1ccc(F)cc1)c1ccc(Br)o1", "GTP binding activity": "inactive: 100%"}, {"smiles": "Cc1ccc(/C=C2\\SC(=S)N(C(Cc3ccccc3)C(=O)O)C2=O)cc1", "note": "(stereo not drawn)", "GTP binding activity": "active: 79%"}, {"smiles": "COc1cc2[nH]c(=S)nc(NCC3CCCO3)c2cc1OC", "note": "(stereo not drawn)", "GTP binding activity": "inactive: 80%"}, {"smiles": "O=C(c1ccccc1)c1c(O)nc(-c2ccccc2)n(-c2ccccc2)c1=O", "GTP binding activity": "inconclusive: 89%"}, {"smiles": "O=c1c2cn[nH]c2[nH]c(=S)n1-c1ccccc1", "GTP binding activity": "inconclusive: 101%"}, {"smiles": "Brc1cccc(-c2nnc3sc(CN4CCCCC4)cn23)c1", "GTP binding activity": "inconclusive: 105%"}, {"smiles": "COc1ccc(C2CC(c3ccccc3)=NN2c2ccc(S(N)(=O)=O)cc2)cc1", "note": "(stereo not drawn)", "GTP binding activity": "inactive: 97%"}, {"smiles": "O=C(CN1C(=O)C2C3c4ccccc4C(c4ccccc43)C2C1=O)Nc1cccc(C(=O)O)c1", "note": "(stereo not drawn)", "GTP binding activity": "active: 127% [activator]"}, {"smiles": "O=C(Nc1ccc(N2CCOCC2)cc1)Nc1ccc2nc(-c3ccco3)c(-c3ccco3)nc2c1", "GTP binding activity": "inconclusive: 89%"}, {"smiles": "COC(=O)[C@@H](NC(=O)/C=C/c1ccc(OC)cc1)C(C)C", "GTP binding activity": "inconclusive: 92%"}, {"smiles": "COc1ccc(CC(=O)NNS(=O)(=O)c2ccccc2)cc1OC", "GTP binding activity": "inconclusive: 117%"}, {"smiles": "Cc1cccc2sc(NNC(=O)c3cc(=O)c4ccccc4o3)nc12", "GTP binding activity": "inactive: 83%"}, {"smiles": "COC(=O)c1cc(OC)c(OC)cc1NC(=S)N1CCN(C/C=C/c2ccccc2)CC1", "GTP binding activity": "inconclusive: 90%"}, {"smiles": "CCOc1ccc2nc(NC(=O)CSc3nc(-c4ccccc4)c(C#N)c(=O)[nH]3)sc2c1", "GTP binding activity": "inactive: 87%"}, {"smiles": "O=C(NCc1nc2ccccc2[nH]1)c1cccc(S(=O)(=O)N2CCOCC2)c1", "GTP binding activity": "inconclusive: 105%"}, {"smiles": "O=C(Oc1ccc(OC(=O)c2ccco2)c(S(=O)(=O)c2ccc(Br)cc2)c1)c1ccco1", "GTP binding activity": "inconclusive: 93%"}, {"smiles": "C=CCN1C(=O)C(O)(CC(=O)c2ccccn2)c2ccccc21", "note": "(stereo not drawn)", "GTP binding activity": "inactive: 107%"}, {"smiles": "Cn1c(SCc2ccccc2)nnc1-c1ccc2c(c1)OCO2", "GTP binding activity": "inconclusive: 100%"}, {"smiles": "COc1cc(-c2csc(CCn3nc(C)cc3C)n2)cc(OC)c1OC", "GTP binding activity": "inconclusive: 108%"}, {"smiles": "Cc1ccc(COC(=O)c2nn(C)c(=O)c3ccccc23)cc1", "GTP binding activity": "inactive: 93%"}, {"smiles": "O=C(NCC1CCCO1)c1onc(CSc2ccccc2)c1C(=O)O", "note": "(stereo not drawn)", "GTP binding activity": "inconclusive: 95%"}, {"smiles": "CCOC(=O)C1CCN(CC(=O)N(CC(C)C)c2c(N)n(CC(C)C)c(=O)[nH]c2=O)CC1", "GTP binding activity": "inactive: 100%"}, {"smiles": "CCCC(=O)c1c[nH]c(C(=O)NCc2ccco2)c1", "GTP binding activity": "inactive: 104%"}, {"smiles": "COc1ccc(N(CC(=O)NN=C2CCCC2)S(=O)(=O)c2ccccc2)cc1", "GTP binding activity": "inconclusive: 102%"}, {"smiles": "NC(=O)COC(=O)c1cccc2c1-c1ccccc1C2=O", "GTP binding activity": "active: 78%"}, {"smiles": "N#Cc1c2nc3ccccc3nc2n2cc(NC(=O)c3ccc(F)cc3)ccc12", "GTP binding activity": "active: 77%"}, {"smiles": "O=C(Cn1cnc2c(nnn2Cc2ccccc2)c1=O)NCC1CCCO1", "note": "(stereo not drawn)", "GTP binding activity": "inactive: 102%"}]}]}
